153 variants from a collection of fitness landscapes (doi:10.1126/science.1257360) can be followed below.

The list shows a part of the results.

B1: PhoQ; a variant is named by its letters at X, in order, P23837 (parent)
chain: MKKLLRLFFPLSLRVRFLLATAAVVLVLSLAYGMVALIGYSVSFDKTTFRLLRGESNLFYTLAKWENNKLHVELPENIDKQSPTMTLIYDENGQLLWAQRDVPWLMKMIQPDWLKSNGFHEIEADVNDTSLLLSGDHSIQQQLQEVREDDDDAEMTHSVAVNVYPATSRMPKLTIVVVDTIPVELKSSYMVWSWFIYVLSANLLLVIPLLWVAAWWSLRPIEALAKEVRELEEHNRELLNPATTRELTSLVRNLNRLLKSERERYDKYRTTLTDLTHSLKTPLXXLQXXLRSLRSEKMSVSDAEPVMLEQISRISQQIGYYLHRASMRGGTLLSRELHPVAPLLDNLTSALNKVYQRKGVNISLDISPEISFVGEQNDFVEVMGNVLDNACKYCLEFVEISARQTDEHLYIVVEDDGPGIPLSKREVIFDRGQRVDTLRPGQGVGLAVAREITEQYEGKIVAGESMLGGARMEVIFGRQHSAPKDE

This assay covers variants of B1. In words: enrichment ratio after two sorts for PhoP signalling (ratio (wild type AVST 3.29)); higher = more functional. The settings on record: with PhoP (E. coli).
Consider GIVR, for which the enrichment ratio worked out at 3.19. To KGKP belongs ≤ 0.25; to LSDM, ≤ 0.25; to DSLT, ≤ 0.25.

Consider ICDH, for which the enrichment ratio is ≤ 0.25. KAFS: the enrichment ratio was ≤ 0.25. As for RDGD, the enrichment ratio was ≤ 0.25. As to SLRE, the enrichment ratio was ≤ 0.25. To FMPN belongs ≤ 0.25; to DQDW, ≤ 0.25; to TATS, 19.8.

On to WTQR, for which the enrichment ratio is ≤ 0.25. For TSRI the value was ≤ 0.25. For LCEF, the enrichment ratio is ≤ 0.25. Take PDDM: the enrichment ratio is ≤ 0.25. In the case of YTHM, the enrichment ratio was ≤ 0.25.

Take PKLM: the enrichment ratio is ≤ 0.25.

QRHM: the enrichment ratio was ≤ 0.25.

On to SSNI, for which the enrichment ratio is 7.29. To FPWI belongs ≤ 0.25. As to HGQD, the enrichment ratio was ≤ 0.25. For the variant SLEE, the enrichment ratio was ≤ 0.25.

On to IERM, for which the enrichment ratio was ≤ 0.25. For SWMH the value was ≤ 0.25; for NLHG, ≤ 0.25. In the case of TLNP, the enrichment ratio is ≤ 0.25. To PVLA belongs ≤ 0.25; to YHGP, ≤ 0.25. For LHDA the value was ≤ 0.25. Turning to EGAD, the enrichment ratio was ≤ 0.25.

On to KPCG, for which the enrichment ratio is ≤ 0.25. Turning to RKYP, the enrichment ratio is ≤ 0.25. To QAGL belongs 4.95; to NFKT, ≤ 0.25.

As for VASY, the enrichment ratio is ≤ 0.25. Turning to GRRE, the enrichment ratio is ≤ 0.25. With TPGL, the enrichment ratio was ≤ 0.25. For MQLR the value was ≤ 0.25. LAKA: the enrichment ratio is ≤ 0.25.

In the case of ARYM, the enrichment ratio is ≤ 0.25. To QLRF belongs ≤ 0.25; to HSAL, ≤ 0.25. Take RWPL: the enrichment ratio was ≤ 0.25.

Regarding DGNG, the enrichment ratio was ≤ 0.25. As to PEDK, the enrichment ratio is ≤ 0.25.

Regarding VAIL, the enrichment ratio was ≤ 0.25. For VAWI the value was ≤ 0.25. As to PAYQ, the enrichment ratio was ≤ 0.25. For HGHH the value was ≤ 0.25. To EQPG belongs ≤ 0.25. EACH: the enrichment ratio is 2.01. LSIL: the enrichment ratio was ≤ 0.25. To YIIS belongs ≤ 0.25. For the variant QVYV, the enrichment ratio is ≤ 0.25. For NSIF the value was ≤ 0.25; for FKWP, ≤ 0.25; for DTGK, ≤ 0.25. To LQKN belongs ≤ 0.25; to LRKF, ≤ 0.25; to VKQC, ≤ 0.25. Turning to SHMD, the enrichment ratio is ≤ 0.25. To MYGV belongs ≤ 0.25; to RRHF, ≤ 0.25.

With EYEN, the enrichment ratio is ≤ 0.25. To DTGC belongs ≤ 0.25; to GQTT, ≤ 0.25; to TGLS, 14.9. For HHFE the value was ≤ 0.25.

With IMLS, the enrichment ratio is ≤ 0.25. FEEQ: the enrichment ratio was ≤ 0.25.

YECQ: the enrichment ratio worked out at 30.7. For the variant VVMM, the enrichment ratio was ≤ 0.25. Regarding FWYC, the enrichment ratio is ≤ 0.25.

For the variant DRSP, the enrichment ratio was ≤ 0.25. For RYRH the value was ≤ 0.25. For TGCP the value was ≤ 0.25; for LYWI, ≤ 0.25; for LNIE, ≤ 0.25. To KYYF belongs ≤ 0.25; to SAAA, 2.1; to VPPT, ≤ 0.25. Turning to LKGE, the enrichment ratio is ≤ 0.25.

QTSV: the enrichment ratio was ≤ 0.25. To FLKA belongs ≤ 0.25; to HYNN, ≤ 0.25.

As for EVQR, the enrichment ratio is ≤ 0.25. To SQNQ belongs 6.74; to EDRI, ≤ 0.25. For ANIA the value was ≤ 0.25. Consider QSSA, for which the enrichment ratio came out at 4.92. For FQIF the value was ≤ 0.25; for HFTK, ≤ 0.25; for VTQR, ≤ 0.25.

Turning to DSAR, the enrichment ratio is ≤ 0.25.

As to PLGQ, the enrichment ratio is ≤ 0.25. To SETS belongs 12. For RVGC the value was ≤ 0.25; for KMVQ, ≤ 0.25; for KHQI, ≤ 0.25. For the variant DVDW, the enrichment ratio is ≤ 0.25. To KKSS belongs ≤ 0.25. For GWHM the value was ≤ 0.25; for EGDM, ≤ 0.25; for ETQR, ≤ 0.25. To EFYK belongs ≤ 0.25; to RTAH, ≤ 0.25. As for TKNN, the enrichment ratio is ≤ 0.25. On to RPRM, for which the enrichment ratio is ≤ 0.25. For IYHV the value was ≤ 0.25; for QASW, ≤ 0.25. In the case of LYDE, the enrichment ratio was ≤ 0.25. Consider PSQP, for which the enrichment ratio is ≤ 0.25. For the variant RGDC, the enrichment ratio was ≤ 0.25. Consider MRGN, for which the enrichment ratio is ≤ 0.25. To PCAP belongs ≤ 0.25. For WTRQ the value was ≤ 0.25; for NRQE, ≤ 0.25. For SRPP the value was ≤ 0.25. Take GWFF: the enrichment ratio was ≤ 0.25. To FVHL belongs ≤ 0.25; to PATI, ≤ 0.25; to WETH, ≤ 0.25. For IWTL the value was ≤ 0.25; for RSFH, ≤ 0.25.

DMYG: the enrichment ratio was ≤ 0.25. Regarding WPKL, the enrichment ratio was ≤ 0.25. For the variant DGAA, the enrichment ratio was ≤ 0.25. As for KHNI, the enrichment ratio was ≤ 0.25. Regarding TDWI, the enrichment ratio is ≤ 0.25. As for TQET, the enrichment ratio is ≤ 0.25.

For the variant AKAF, the enrichment ratio was 5.84. For AAAM the value was 10.1; for GRYW, ≤ 0.25. For QGKI the value was ≤ 0.25; for TMPA, ≤ 0.25. As to YNNK, the enrichment ratio is ≤ 0.25. With NMIG, the enrichment ratio was ≤ 0.25. For DDDQ the value was ≤ 0.25; for QYRN, ≤ 0.25.

With NPID, the enrichment ratio was ≤ 0.25.

With SIWT, the enrichment ratio was ≤ 0.25. For VSPS, the enrichment ratio was ≤ 0.25.

Turning to VRER, the enrichment ratio is ≤ 0.25. To FRCC belongs ≤ 0.25.

On to RIQQ, for which the enrichment ratio is ≤ 0.25. For RKCK the value was ≤ 0.25. To RHDQ belongs ≤ 0.25; to GIPL, ≤ 0.25. For LMPP the value was ≤ 0.25. Turning to NLPF, the enrichment ratio was ≤ 0.25. Turning to GNCP, the enrichment ratio was ≤ 0.25. Take AMQS: the enrichment ratio is ≤ 0.25. Consider MESH, for which the enrichment ratio worked out at 4.64.
